Assay results: PubChem BioAssay AID1671188 (National Center for Advancing Translational Sciences (NCATS), 2021)
The whole screen tested about 100,000 compounds, of which about 250 (0.25%) were called active. This list was built around the results that the source calls inconclusive (neither active nor inactive); the mix of calls is not that of the screen. Calls come from the whole dose curve; as a rule, active = well fitted inhibition curve with a large enough effect; inconclusive = small, poorly fitted or top-dose-only effect; inactive = flat fitted curve, though single readings scatter. No potency is given beside an inconclusive call; the fits are too rough.

What follows are molecules tested against Alanine aminotransferase 2 (Homo sapiens) (UniProt Q8TD30) (assay: Primary qHTS assay for inhibitors of Glutamate pyruvate transaminase 2 (GPT2)). Details: Recombinant GPT2, coupled pyruvate oxidase/HRP Amplex Red fluorescence; activity change, negative = inhibition: at 57.7 µM (top of the series) unless noted; series mostly up to 57.7 µM.
UniProt Q8TD30, sequence (Q8TD30 whole entry, looked up): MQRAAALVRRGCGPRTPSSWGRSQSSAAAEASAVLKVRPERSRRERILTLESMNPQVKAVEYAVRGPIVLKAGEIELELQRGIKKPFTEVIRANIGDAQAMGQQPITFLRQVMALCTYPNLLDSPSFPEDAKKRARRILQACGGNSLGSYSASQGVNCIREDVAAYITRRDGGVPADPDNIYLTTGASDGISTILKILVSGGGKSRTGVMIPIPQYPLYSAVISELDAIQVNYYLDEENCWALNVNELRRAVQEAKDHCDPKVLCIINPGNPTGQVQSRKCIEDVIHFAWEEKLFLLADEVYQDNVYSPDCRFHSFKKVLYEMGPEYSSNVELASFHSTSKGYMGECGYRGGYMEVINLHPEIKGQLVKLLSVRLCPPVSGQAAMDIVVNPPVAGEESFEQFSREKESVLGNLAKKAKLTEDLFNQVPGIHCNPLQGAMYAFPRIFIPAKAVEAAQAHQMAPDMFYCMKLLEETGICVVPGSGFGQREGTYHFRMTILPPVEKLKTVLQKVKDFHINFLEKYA
Method in brief: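 Recombinant GPT2 (10ng/uL) with 250uM a-KG and 2mM L-alanine, 30 min at room temperature, in HEPES pH 7.5 buffer. Pyruvate detected by pyruvate oxidase/HRP/Amplex Red fluorescence after 30 min in the dark; AOA (50uM) as positive control.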
% is set by controls: 0 for no effect and ±100 for the full control effect; potency is the fitted concentration of half-maximal effect; tags give direction and shape of the fitted curve.
Note: nearly all actives have a fitted effect of over 60% in size.

Question: With COC(=O)[C@@]1(c2ccc(C)cc2)C[C@H]1CN1CCC(O)(c2ccccc2)CC1 as the molecule, how does the Potency read?
Answer: inconclusive [inhibitor, partial curve, poor fit]

Question: How did the “outcome” value turn out when CCc1cc(=O)n(CC(=O)Nc2cccc(C#N)c2)c(-c2ccccc2)n1 was run?
Answer: inactive

Question: For CN(C)c1ccc(NC(=O)CCn2ccn3nc4c(c3c2=O)CCCC4)cc1, which Potency is on record?
Answer: inconclusive [inhibitor, full curve, poor fit]

Question: How did the Potency turn out when CN1CC(C(=O)NCCCc2ccccc2)NC1=O (stereo not drawn) was run?
Answer: inconclusive [inhibitor, single point]

Question: How did the Potency turn out when COc1ccc(CN(CCN(C)C)c2ccccn2)cc1 was run?
Answer: inconclusive [inhibitor, full curve, poor fit]

Question: How did the Potency turn out when COCCN1C(=O)c2ccccc2C(C(=O)NCc2cccc(F)c2)C12CCCC2 (stereo not drawn) was run?
Answer: inconclusive [inhibitor, single point]

Question: COCCN1C(=O)CS(=O)C12CCN(C(=O)c1ccsc1)CC2 (stereo not drawn) was tested. Which Potency did it give?
Answer: inconclusive [inhibitor, single point]

Question: COc1ccc(N2Cc3c(NC4CCCCCC4)ncnc3N(C)CC2=O)cc1 was tested. Which Potency did it give?
Answer: inconclusive [inhibitor, single point]

Question: Which Potency does the source give for Cc1ccc(-n2nc(C)c([C@@H]3C=C[C@@H](NC(=O)NCc4ccccc4)C3)c2C)cc1Cl here?
Answer: inconclusive [inhibitor, full curve, poor fit]

Question: How did the Potency turn out when CC1(C(=O)NCc2ccncc2)CCCc2cnc(NCc3ccccc3)nc21 (stereo not drawn) was run?
Answer: inconclusive [inhibitor, single point]

Question: How did the Potency turn out when CC(=O)c1ccc(S(=O)(=O)NC(=O)NC2CCCCC2)cc1 was run?
Answer: inconclusive [inhibitor, partial curve, poor fit]

Question: How did the Potency turn out when CC(C)c1nc(CNC(=O)c2ccc(N3CCCC(C(N)=O)C3)nc2)no1 (stereo not drawn) was run?
Answer: inconclusive [inhibitor, full curve, poor fit]

Question: Cc1noc(C)c1-c1cc2cc(CNC3CC3)oc2c(NC2CCN(C)CC2)n1 was tested. Which Potency did it give?
Answer: inconclusive [inhibitor, full curve, poor fit]

Question: Cc1c(-c2ccnn2C)cc(C(=O)NCc2ccc(S(C)(=O)=O)cn2)c(=O)n1-c1cccc(C(F)(F)F)c1 was tested. Which Potency did it give?
Answer: inactive

Question: How did the Potency turn out when COc1ccc(-c2cc(N3CCC(NC(=O)c4cc(F)ccc4Cl)C3)n[nH]2)cc1 (stereo not drawn) was run?
Answer: inconclusive [inhibitor, single point]

Question: How did the “activity change, negative = inhibition” value turn out when O=C(NC1CCN(Cc2cccc(-c3ccc(F)c(F)c3)c2)CC1)c1ccccc1F was run?
Answer: inactive: -1.84%

Question: How did the Potency turn out when O=C(c1cscn1)N1CCC(F)(c2nc(-c3ccncc3)no2)CC1 was run?
Answer: inconclusive [inhibitor, single point]

Question: How did the Potency turn out when Cc1ccc(C)c(CN2CCC(CNC(=O)c3occc3C)C2)c1 (stereo not drawn) was run?
Answer: inconclusive [inhibitor, partial curve, poor fit]

Question: Which “outcome” value does the source give for Cc1ccc(Nc2ccnc(N3CCCC(C(=O)N4CCOCC4)C3)n2)cc1 (stereo not drawn) here?
Answer: inactive

Question: Which Potency does the source give for Cc1cccc(C(=O)N2CCC(C(=O)N3CCCCCCNC(=O)CC3)CC2)c1 here?
Answer: inconclusive [inhibitor, single point]

Question: Which Potency does the source give for O=C(NC1CCN(c2cc(-c3ccc(Cl)cc3)[nH]n2)C1)c1c[nH]c2ccccc12 (stereo not drawn) here?
Answer: inconclusive [inhibitor, single point]

Question: How did the “activity change, negative = inhibition” value turn out when CC(C)=CCC[C@](C)(O)[C@H]1CC[C@]2(C)[C@@H]1[C@H](O)CC1[C@@]3(C)CC[C@H](O)C(C)(C)[C@@H]3[C@@H](O[C@@H]3O[C@H](CO)[C@@H](O)[C@H](O)[C@H]3O[C@@H]3O[C@H](CO)[C@@H](O)[C@H](O)[C@H]3O)C[C@]12C (stereo partly drawn) was run?
Answer: inactive: 3.55% [at 17.1 µM]

Question: With Cc1nc(CCNS(=O)(=O)c2cccs2)no1 as the molecule, how does the Potency read?
Answer: inconclusive [inhibitor, full curve, poor fit]

Question: With c1ccc(OCc2noc(-c3ccc(NCC4CCCCO4)nc3)n2)cc1 (stereo not drawn) as the molecule, how does the “activity change, negative = inhibition” value read?
Answer: inactive: 4.44%

Question: For O=C1NCCCCCCN(C(=O)Nc2ccc3c(c2)OCCO3)[C@H]2CCC[C@@H]12, which “activity change, negative = inhibition” value is on record?
Answer: inactive: 3.7%

Question: How did the Potency turn out when O=C(NC1CC1)c1ccc(Cn2ccn3nc4c(c3c2=O)CCCC4)cc1 was run?
Answer: inconclusive [inhibitor, partial curve, poor fit]

Question: For COc1ccc(-c2cc(N3CCC(NC(=O)c4ccc(C)c(C)c4)C3)n[nH]2)cc1 (stereo not drawn), which Potency is on record?
Answer: inconclusive [inhibitor, partial curve, poor fit]

Question: With O=C(c1cc2cc(Cl)ccc2[nH]1)N1C[C@@H](CO)[C@H](c2ccccn2)C1 as the molecule, how does the Potency read?
Answer: inconclusive [inhibitor, single point]

Question: How did the “outcome” value turn out when Cc1cc(C(=O)NCC(=O)N2CCCCCNC(=O)CC2c2ccccc2)nn1C (stereo not drawn) was run?
Answer: inactive

Question: For Cc1nn(C)c(C)c1CCC(=O)N1CCC(Cc2noc(-c3ccc(F)cc3)n2)C1 (stereo not drawn), which “activity change, negative = inhibition” value is on record?
Answer: inactive: 2.82%

Question: With CC(C)Oc1cccc(-c2n[nH]c3c2CC(=O)N(Cc2ccccn2)C3)c1 as the molecule, how does the Potency read?
Answer: inconclusive [inhibitor, full curve, poor fit]

Question: Which Potency does the source give for O=C(CCc1ccsc1)NC1CCCc2nc(-c3ccccc3)ncc21 (stereo not drawn) here?
Answer: inconclusive [inhibitor, single point]

Question: For CCN(CC)Cc1ccc2cc(COC(=O)Nc3ccc(C(=O)NO)cc3)ccc2c1, which Potency is on record?
Answer: active: 15.3 µM

Question: Which Potency does the source give for COC[C@@H]1CN(C(=O)c2cc(C3CC3)[nH]n2)C[C@H]1c1ccccn1 here?
Answer: inconclusive [inhibitor, full curve, poor fit]

Question: Which “activity change, negative = inhibition” value does the source give for CCn1cc(-c2ccc(Cl)cc2)cc1C(=O)NCC1CCCO1 (stereo not drawn) here?
Answer: inactive: 3.49%

Question: How did the Potency turn out when COC(=O)N1CCCN(c2nccc(Nc3ccc(C)cc3)n2)C1 was run?
Answer: inconclusive [inhibitor, single point]

Question: With CC(C)NS(=O)(=O)c1cc(C(=O)O)cc(-n2cccn2)c1 as the molecule, how does the Potency read?
Answer: inconclusive [inhibitor, single point]

Question: Which “activity change, negative = inhibition” value does the source give for CSCCNC(=O)C1CCCN1c1nccc(Nc2ccccc2F)n1 (stereo not drawn) here?
Answer: inactive: -3.93%

Question: With O[C@@H]1CC(CNCc2ccc(F)cc2)(COc2cccnc2)C[C@@H]1O (stereo partly drawn) as the molecule, how does the Potency read?
Answer: inconclusive [inhibitor, single point]

Question: For O=C(NC1CCN(c2cc(-c3ccc(F)cc3)[nH]n2)C1)c1ccccc1Br (stereo not drawn), which Potency is on record?
Answer: inconclusive [inhibitor, partial curve]

Question: Which “outcome” value does the source give for c1coc(-c2nc3nccc(-c4ccc5c(c4)OCCCO5)n3n2)c1 here?
Answer: inactive

Question: Which Potency does the source give for COc1ccc(N2CC3CCC(C2)N3Cc2cccc(Cl)c2)cc1 here?
Answer: inconclusive [inhibitor, partial curve, poor fit]

Question: How did the Potency turn out when O=C(c1ccc(F)cc1)N1CCC(N2CCCCCC2=O)CC1 was run?
Answer: inconclusive [inhibitor, full curve, poor fit]

Question: How did the Potency turn out when FC(F)(F)c1cccc(C2=NOC3(CCCN(CC4CCCCC4)C3)C2)c1 (stereo not drawn) was run?
Answer: inconclusive [inhibitor, partial curve, poor fit]

Question: With O=C(NCCC1CCN(C(=O)Nc2cccc(F)c2)CC1)c1ccco1 as the molecule, how does the Potency read?
Answer: inconclusive [inhibitor, full curve, poor fit]

Question: Which “outcome” value does the source give for COc1cccc(-c2c(C(=O)NCCc3ccc(Cl)cc3)nc3sccn23)c1 here?
Answer: inactive

Question: Which “activity change, negative = inhibition” value does the source give for COc1ccc(CC(=O)N2Cc3ccccc3CC3(CCN(C)C3)C2)cc1 (stereo not drawn) here?
Answer: inactive: -1.6%

Question: How did the Potency turn out when Cc1ncccc1C(=O)N1CCC2(CCN(Cc3ccccn3)CC2)C(CO)C1 (stereo not drawn) was run?
Answer: inconclusive [inhibitor, single point]

Question: Which “activity change, negative = inhibition” value does the source give for CCOc1ccc(-c2cc3n(n2)CCCN(C(=O)Cn2cnc4c2c(=O)n(C)c(=O)n4C)C3)cc1 here?
Answer: inactive: 2.99%

Question: Which Potency does the source give for Cc1noc2c(-c3cnn(C)c3)cc(-c3cccs3)nc12 here?
Answer: inconclusive [inhibitor, single point]

Question: Which Potency does the source give for COC(=O)C1=CO[C@@H](O[C@@H]2O[C@H](CO)[C@@H](O)[C@H](O)[C@H]2O)[C@@H]2[C@@H](C)[C@@H](O)C[C@H]12 here?
Answer: inconclusive [inhibitor, partial curve, poor fit]

Question: COc1ccc(N2CC(c3noc(-c4cccc(C)c4)n3)CC2=O)cc1 (stereo not drawn) was tested. Which Potency did it give?
Answer: inconclusive [inhibitor, single point]

Question: Cc1ccc(NC(=O)N2CCc3c(c4ccccc4n3C)C2)cc1 was tested. Which Potency did it give?
Answer: inconclusive [inhibitor, single point]

Question: COc1ccccc1CNC(=O)[C@H]1CN(C(C)C)C[C@H]1C(=O)O was tested. Which Potency did it give?
Answer: inconclusive [inhibitor, single point]

Question: CC(=O)N1CCC[C@H](n2c(=O)n(C)c3cccnc32)C1 was tested. Which “activity change, negative = inhibition” value did it give?
Answer: inactive: 0.203%

Question: Which Potency does the source give for Cc1ccc(-n2nc3n(c2=O)CCN(C(=O)NC2CCCC2)C3)cc1 here?
Answer: inconclusive [inhibitor, full curve, poor fit]

Question: For Fc1ccc2nc([C@H]3CCN(Cc4ccc(F)c(F)c4)C3)[nH]c2c1, which Potency is on record?
Answer: inconclusive [inhibitor, single point]

Question: How did the activity change, negative = inhibition turn out when CC(C)(C)NCc1cc(Nc2ccnc3cc(Cl)ccc23)c2c(c1O)CCCC2 was run?
Answer: inactive: 4.21% [at 0.698 µM]

Question: O=C1COc2ccc(-c3cccnc3)nc2CN1Cc1ccc(C(F)(F)F)cc1 was tested. Which Potency did it give?
Answer: inconclusive [inhibitor, single point]

Question: Which “activity change, negative = inhibition” value does the source give for Fc1ccc(-c2cc(-c3cn[nH]c3)c3cncn3c2)cc1 here?
Answer: inactive: -18.8% [at 88.5 µM]

Question: CC(C)c1noc(C2CCCN(C(=O)C3(c4ccccc4)CC3)CCC(=O)NCC2)n1 (stereo not drawn) was tested. Which Potency did it give?
Answer: inconclusive [inhibitor, partial curve, poor fit]

Question: CC1=C[C@@H](CNC(=O)c2ccco2)[C@H](C(C)C)C[C@H]1CC(=O)NCc1ccccn1 was tested. Which Potency did it give?
Answer: inconclusive [inhibitor, single point]

Question: C[C@H]1[C@@H]2[C@@H](O)C([C@H](C)C(=O)NCc3ccccn3)CC[C@@]2(C)CC[C@@H]1NC(=O)c1ccccc1 (stereo partly drawn) was tested. Which Potency did it give?
Answer: inconclusive [inhibitor, partial curve, poor fit]
